Experimental data from PMC4336329 (PLoS ONE, 2015).
About 14,000 (4.5%) of roughly 310,000 compounds showed an effect of 50% or more. Effects have a minus sign here. The list shows a part of the results.

Target: human ether-à-go-go-related gene (hERG) potassium channel (human, UniProt Q12809)
Experiment: primary screen, population patch clamp on CHO cells stably expressing hERG
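Note: peak tail current of the secondary pulse compared with the same well before compound.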

Chain of human ether-à-go-go-related gene (hERG) potassium channel (Q12809 whole entry, looked up): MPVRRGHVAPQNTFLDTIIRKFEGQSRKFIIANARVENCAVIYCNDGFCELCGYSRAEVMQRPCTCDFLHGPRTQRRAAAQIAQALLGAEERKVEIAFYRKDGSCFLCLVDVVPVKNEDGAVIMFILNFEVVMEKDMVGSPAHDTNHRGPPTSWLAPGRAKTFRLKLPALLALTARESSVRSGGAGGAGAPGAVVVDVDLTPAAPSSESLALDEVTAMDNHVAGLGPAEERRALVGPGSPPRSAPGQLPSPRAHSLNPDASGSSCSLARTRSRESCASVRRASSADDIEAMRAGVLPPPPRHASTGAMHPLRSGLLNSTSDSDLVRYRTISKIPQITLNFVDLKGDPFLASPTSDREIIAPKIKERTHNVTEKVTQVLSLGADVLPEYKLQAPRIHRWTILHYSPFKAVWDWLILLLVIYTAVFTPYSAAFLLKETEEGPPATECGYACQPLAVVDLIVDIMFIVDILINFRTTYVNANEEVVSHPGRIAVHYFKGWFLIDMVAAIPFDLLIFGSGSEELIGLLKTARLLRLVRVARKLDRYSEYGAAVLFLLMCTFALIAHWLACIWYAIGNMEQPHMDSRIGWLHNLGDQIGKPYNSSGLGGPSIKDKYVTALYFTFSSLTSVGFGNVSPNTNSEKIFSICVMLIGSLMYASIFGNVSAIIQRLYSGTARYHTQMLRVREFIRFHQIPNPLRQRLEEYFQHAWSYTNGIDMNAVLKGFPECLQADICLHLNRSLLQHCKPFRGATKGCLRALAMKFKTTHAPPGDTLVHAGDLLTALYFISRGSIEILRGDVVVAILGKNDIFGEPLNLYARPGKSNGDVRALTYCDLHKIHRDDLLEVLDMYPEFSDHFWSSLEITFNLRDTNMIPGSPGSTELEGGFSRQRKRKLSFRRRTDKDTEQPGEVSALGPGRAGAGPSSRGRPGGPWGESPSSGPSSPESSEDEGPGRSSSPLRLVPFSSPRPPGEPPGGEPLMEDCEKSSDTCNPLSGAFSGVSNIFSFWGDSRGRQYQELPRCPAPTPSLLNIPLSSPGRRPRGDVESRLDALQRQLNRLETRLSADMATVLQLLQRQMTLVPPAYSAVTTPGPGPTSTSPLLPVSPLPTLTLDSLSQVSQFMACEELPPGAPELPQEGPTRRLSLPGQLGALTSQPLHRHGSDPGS

SMILES	hERG current change (%, negative = inhibition) at 10uM [%]
O=C(Cn1cnc2c(nnn2Cc2ccc(Cl)cc2)c1=O)c1ccccc1	6.26
N#Cc1c(NC(=O)C2C3C=CC(C3)C2C(=O)O)sc2c1CCCCC2 (stereo not shown)	14.4
COc1cc2c(cc1OC)CN(C(=O)CCCN1C(=O)c3ccccc3C1=O)CC2	-8.82
COc1ccccc1NC(=O)N1CCC(C(=O)c2ccc(F)cc2)CC1	0.487
O=C1c2ccccc2C(=O)c2c1cccc2N1CCCC1	-14.3
C=CC[n+]1c(-c2ccc(Cl)cc2Cl)csc1Nc1c(C)n(C)n(-c2ccccc2)c1=O.[Cl-]	-36.9
Cc1ccc(NC(=O)c2ccccc2-c2ccccc2C(=O)O)cc1	14.1
CCCn1c(=O)n(C)c(=O)c2c(SCc3cc(C(C)=O)ccc3OCC)nc(C3CC3)nc21	-1.54
Cc1ccc(/C=N/NC(=O)Nc2ccccc2)o1	-3.6
COc1ccc(N(C=O)C(C(=O)Nc2c(C)cccc2C)c2ccccc2)cc1 (stereo not shown)	-3.39
CCCCNC(=O)CCCCC(=O)N/N=C/c1cccc(Cl)c1	-14.3
O=C(CCNc1ccc(F)cc1)c1cc2ccccc2o1	12.2
COC(=O)C(CCSC)NC(=O)Cn1ncc2c(=O)oc3ccc(C)cc3c21 (stereo not shown)	-16.8
CCn1cc(S(=O)(=O)N2CCc3ccccc3C2)cn1	10
O=C(Nc1nonc1-c1ccc(F)cc1)c1ccco1	-4.51
ClC1=C(Cl)C(Cl)=C(Cl)C1=C/C=C/c1ccccc1	1.91
O=C(Nc1nc(-c2ccccc2)cs1)C1CCCCN1S(=O)(=O)c1ccccc1 (stereo not shown)	-3.48
COc1ccc(C2CC(c3ccccc3)=NN2C(=O)COC(=O)C2CC2)cc1 (stereo not shown)	-4.19
O=C(O)c1ccccc1OCc1nc2ccccc2s1	14.3
Cc1ccc(CNC(=O)C2CCN(S(=O)(=O)c3c(C)noc3/C=C/N(C)C)CC2)cc1	-24.2
CCOc1cc2c(cc1/C=C/c1noc(C)c1[N+](=O)[O-])OC(C)C2 (stereo not shown)	22.9
C=CCN1C(=O)C(C)S/C1=N\S(=O)(=O)c1ccc(Cl)cc1 (stereo not shown)	-1.04
Cc1ccsc1/C=N\NC(=O)CCc1c(C)n[nH]c1C	1.57
Cc1cc(C(=O)Nc2ccccc2C(=O)O)ccc1NC(=O)COc1cccc(C)c1C	4.47
Cc1nnc(SCCn2c(N3CCC(Cc4ccccc4)CC3)nc3c2c(=O)[nH]c(=O)n3C)s1	-23.6
COc1ccc(C(=O)O)cc1S(=O)(=O)N(C)C	16.6
COC(=O)c1ccc(CNC(=O)COC(=O)COc2ccc(OC)cc2)cc1	17.2
COc1cc(C)c(/C=C/C(C)=C/C=C/C(C)=C/C(=O)O)c(C)c1C	11.4

SMILES	hERG current change (%, negative = inhibition) at 10uM [%]
O=C(COC(=O)c1c(Cl)cccc1Cl)Nc1cc(Cl)ccc1Oc1ccccc1	2.19
CC(C(=O)N1CCc2ccccc21)N1CCN(Cc2ccc(Cl)cc2)CC1 (stereo not shown)	-67
Cc1[nH]nc(S(=O)CC(=O)O)c1[N+](=O)[O-] (stereo not shown)	19
O=S(=O)(Nc1ccc2c(c1)OCO2)c1ccc(Cl)cc1F	-20.5
COC(=O)c1sccc1NC(=O)CSc1ccccc1NS(=O)(=O)c1ccc(F)cc1	-11.5
O=c1c[n+]([O-])c2ccccc2n1OCc1c(F)cccc1F	-4.87
O=C(CCc1ccc(S(=O)(=O)N2CCOCC2)cc1)N1CCc2ccccc2C1	-14.5
Cn1c(=O)c2ncn(CC(=O)N=Nc3c(O)[nH]c4ccccc34)c2n(C)c1=O	20.7
Cc1cccc(OCC(=O)NCC(=O)N/N=C/c2ccc(N(C)C)cc2)c1	0.0886
COc1ccc(S(=O)(=O)CCC(=O)Nc2ccc(OC)cc2OC)cc1	-7.54
COc1cc(/C=C/C(=O)NCc2nc3ccccc3[nH]2)cc(OC)c1OC	15
Cc1nn(CC(N)=O)c(=O)c2ccccc12	10.6
CCOC(=O)c1ccc(OCc2c(C)noc2C)cc1	-6.05
COc1ccccc1N1CCN(c2ncnc3nc[nH]c23)CC1	-9.85
CN(CC(=O)Nc1cccc(F)c1)C(=O)/C=C/c1ccc(Br)s1	13.2
COc1cccc(CNC(=O)C(C)n2ccc3cc(S(=O)(=O)N4CCCC4)ccc32)c1 (stereo not shown)	0.662
CCCN1C(=O)C2(C(C(=O)c3ccc(C)o3)=C(O)C(=O)N2CCCN2CCOCC2)c2ccccc21 (stereo not shown)	9.04
O=c1[nH]c(CSc2nnc(-c3cccnc3)n2C2CCCCC2)nc2ccccc12	0.0819
O=C1C=C(O)c2c(O)cc(O)c(O)c2C1=O	22.6
CC1CCCCN1c1nc2nonc2nc1N1CCCCC1C (stereo not shown)	-15.8
O=C(N/C(=C\c1ccccc1)C(=O)N1CCOCC1)c1ccccc1Br	17.9
Cc1ccccc1Cn1nc(C)c(NC(=O)/C=C/c2cnn(C)c2C)c1C	-8.45
Cc1ccc(Sc2ncccc2O)cc1	5.73
CCOc1ccc(N(C(C)C(=O)NN=C2CCCCCCC2)S(C)(=O)=O)cc1 (stereo not shown)	7.8
COc1ccc(C(=O)Nc2ccc3c(c2)OCCO3)cc1[N+](=O)[O-]	5.39
CC1=C(C(=O)Nc2ccccc2)C(c2ccco2)C(C#N)=C(SCC(=O)OC(C)C)N1 (stereo not shown)	-19.7
COC(=O)C1=C(c2ccc(OC(F)(F)F)cc2)C[C@@H]2CC[C@H]1N2C(=O)N1CCC(O)CC1	-36.2
